This passage reports binding signal results from paper PMC5836133.

Some of the results follow. At the low end of the ranking the order means little.

The experiment deals with T1, GST-NbGlk1(82-244).
T1 sequence: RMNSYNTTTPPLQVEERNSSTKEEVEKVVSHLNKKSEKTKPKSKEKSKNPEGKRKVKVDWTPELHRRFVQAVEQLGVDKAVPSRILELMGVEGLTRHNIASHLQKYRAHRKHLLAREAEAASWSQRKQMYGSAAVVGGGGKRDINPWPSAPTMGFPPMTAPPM
The experiment in a line: protein-binding microarray.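 Also: rank-based score ranging −0.5 to +0.5 with E above 0.45 taken as significant binding.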 To be noted: NbGlk1 is a Golden2-like transcription factor of Nicotiana benthamiana; high values mean tight binding; most listed sequences are background and not binding sites; double strand, one strand shown.
Turning to AAACCGGC, the binding signal amounted to 0.0103 E-score.

Regarding ACCTGCGT, the binding signal was -0.171 E-score.

AGCATGGC: the binding signal is -0.257 E-score.

ATCCTGAC registered a binding signal of 0.301 E-score.

In turn, CAGCGTCA showed a binding signal of -0.0568 E-score.

Sequence AAACGCAG came in with a binding signal of -0.0137 E-score.

For the sequence AAAGATGC, the binding signal was -0.0465 E-score.

Sequence AAGGCTAT gave a binding signal of -0.21 E-score.

As for ACGCGGCC, the binding signal is -0.0956 E-score.

For AAGATTAT, the binding signal worked out at 0.288 E-score.

The sequence AACTACAG came in with a binding signal of -0.19 E-score.

The sequence AATCCTTC showed a binding signal of 0.265 E-score.

Turning to ATAATAGG, the binding signal was 0.0321 E-score.

ATCTATGA showed a binding signal of 0.247 E-score.

Take ATGCAAAA: the binding signal came out at 0.0832 E-score.

Consider CACTAATA, for which the binding signal stood at 0.151 E-score.

The sequence AATCAACC yielded a binding signal of 0.0711 E-score.

With AAGAAACA, the binding signal was found to be 0.00182 E-score.

Turning to AAATCCCT, the binding signal is 0.354 E-score.

AACTGCGC came in with a binding signal of -0.0355 E-score.

As for ATTCAGTC, the binding signal was determined as 0.0765 E-score.

Sequence ATCGAAAG yielded a binding signal of 0.0949 E-score.

AGTTGCTC yielded a binding signal of -0.228 E-score.

The sequence AGTTCCGC displayed a binding signal of -0.183 E-score.

ATGACAAG had a binding signal of -0.0343 E-score.

Sequence ACCCAATA yielded a binding signal of -0.0334 E-score.

With AAGGGAAC, the binding signal was -0.236 E-score.

On to AGCCCCAC, for which the binding signal is -0.214 E-score.

The sequence AACGAATC returned a binding signal of 0.367 E-score.

AAACGTGC: the binding signal was -0.136 E-score.

On to AAGCCTCG, for which the binding signal was -0.183 E-score.

Regarding AAAGGCGA, the binding signal was -0.109 E-score.

Sequence ACTCAACA registered a binding signal of 0.00303 E-score.

In turn, ACCAATAT showed a binding signal of 0.204 E-score.

ATTATGCA returned a binding signal of 0.135 E-score.

AGCTACAC: the binding signal turned out to be 0.0267 E-score.

As for AAGCTTCC, the binding signal is -0.068 E-score.

For AGGACTGG, the binding signal was -0.158 E-score.

Regarding AGCAGGCA, the binding signal was -0.204 E-score.

ACCGGGTG yielded a binding signal of -0.12 E-score.

As for ACCTTGAC, the binding signal is -0.0796 E-score.

Consider AGAGTCTA, for which the binding signal was -0.258 E-score.

Sequence ACCCAGAC gave a binding signal of -0.0566 E-score.

Sequence AAATGCTA yielded a binding signal of 0.0497 E-score.

As for AAAAGCGA, the binding signal is 0.0794 E-score.

Regarding ATTACTGC, the binding signal was found to be 0.0977 E-score.

Regarding CAGAACGA, the binding signal is -0.145 E-score.

On to ACGAGTCT, for which the binding signal is -0.176 E-score.

Take AGCAAGCA: the binding signal is -0.161 E-score.

As for AAACATGT, the binding signal was -0.0778 E-score.

With ATTTCTTC, the binding signal came out at 0.205 E-score.

Consider ACGGAGAA, for which the binding signal stood at 0.193 E-score.

On to AGCTGTCC, for which the binding signal is -0.157 E-score.

The sequence AGCCATGG returned a binding signal of -0.235 E-score.

CAGACAGG came in with a binding signal of -0.212 E-score.

AGAGCATC came in with a binding signal of -0.0784 E-score.

As for ACAACGCC, the binding signal was -0.127 E-score.

Turning to AAAGGCGG, the binding signal is -0.188 E-score.

AGGGACTG displayed a binding signal of -0.161 E-score.

As for AGCGACCG, the binding signal was -0.238 E-score.

CAGACCCG yielded a binding signal of -0.213 E-score.

Turning to AGTTTGAT, the binding signal turned out to be 0.123 E-score.

Sequence AGGACGCG showed a binding signal of -0.179 E-score.

In turn, ATAGGTTG had a binding signal of -0.0411 E-score.

The sequence CAACCTAC showed a binding signal of -0.199 E-score.

ACTCGGCG gave a binding signal of -0.149 E-score.

As to ACAGAGGG, the binding signal is -0.253 E-score.

For AGCACAAT, the binding signal came out at 0.0349 E-score.

Consider ACGGTCCT, for which the binding signal was -0.3 E-score.

The sequence ATGAGTCA gave a binding signal of -0.0918 E-score.

For ATCCCACA, the binding signal turned out to be 0.234 E-score.

Consider CACGGTAG, for which the binding signal was -0.154 E-score.

AATGGTGT: the binding signal amounted to 0.013 E-score.

Regarding ATGGCGGA, the binding signal is -0.126 E-score.

Sequence AAACGTCC returned a binding signal of -0.17 E-score.

Sequence ACCGTTAC gave a binding signal of -0.0877 E-score.

Turning to AGGGCGCA, the binding signal was -0.191 E-score.

AGATCTAC gave a binding signal of 0.347 E-score.

In the case of ACTTGGTG, the binding signal is -0.178 E-score.

For the sequence CACAGTGA, the binding signal was -0.0993 E-score.

Regarding AGAACGCG, the binding signal is -0.126 E-score.

Sequence AAACATTA returned a binding signal of 0.106 E-score.

For AGCCAAGC, the binding signal is -0.306 E-score.

For ATTAACTC, the binding signal is -0.086 E-score.

As for AGGCCTTG, the binding signal was -0.129 E-score.

ATTTGAAA: the binding signal was determined as 0.195 E-score.

With ATCGCTAG, the binding signal worked out at 0.0832 E-score.

With AATCACTA, the binding signal was 0.234 E-score.

For the sequence ATCTCACC, the binding signal is 0.317 E-score.

For the sequence AACAGTAG, the binding signal is -0.0728 E-score.

With ACTAGGGC, the binding signal is -0.14 E-score.

As for AGGTAGTA, the binding signal is -0.0212 E-score.

Turning to AGTCTTCA, the binding signal was 0.00595 E-score.

CACGGGCC registered a binding signal of -0.245 E-score.
